In PubChem BioAssay AID1159614 (National Center for Advancing Translational Sciences (NCATS), 2016):
Hit rate of the full screen: of about 45,000 compounds, about 65 (0.1%) were called active. The call rests on the fitted dose curve; in most records, active means well fitted activation curve with a large enough effect; inconclusive means small, poorly fitted or top-dose-only effect; inactive means no such curve, though single readings can be large or run the other way. Some of the results follow.

molecular target: Galactocerebrosidase (Homo sapiens) (UniProt P54803); test: A Novel Cell-Based Assay to Identify Small Molecules for B -Galactocerebrosidase; settings: 145M-Twi-hGALC-G270D cells (Twitcher mouse brain line with human GALC G270D), HMU-beta-Gal fluorescence, 48 h; series mostly up to 57.5 µM; activation: at the top concentration; further: 0% is about no effect; nearly all actives have a fitted effect of over 65% in size
Summary of the method: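 Brain-derived Twitcher mouse 145M-Twi cells stably expressing human GALC-G270D or wild-type GALC, treated live, then residual GALC activity read by fluorescence of HMU-b-Gal substrate (0.1 mM final) in citrate-phosphate buffer pH 5.2 with sodium taurocholate. Signal increase indicates enhancement.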

Sequence of UniProt P54803 (P54803 whole entry, looked up): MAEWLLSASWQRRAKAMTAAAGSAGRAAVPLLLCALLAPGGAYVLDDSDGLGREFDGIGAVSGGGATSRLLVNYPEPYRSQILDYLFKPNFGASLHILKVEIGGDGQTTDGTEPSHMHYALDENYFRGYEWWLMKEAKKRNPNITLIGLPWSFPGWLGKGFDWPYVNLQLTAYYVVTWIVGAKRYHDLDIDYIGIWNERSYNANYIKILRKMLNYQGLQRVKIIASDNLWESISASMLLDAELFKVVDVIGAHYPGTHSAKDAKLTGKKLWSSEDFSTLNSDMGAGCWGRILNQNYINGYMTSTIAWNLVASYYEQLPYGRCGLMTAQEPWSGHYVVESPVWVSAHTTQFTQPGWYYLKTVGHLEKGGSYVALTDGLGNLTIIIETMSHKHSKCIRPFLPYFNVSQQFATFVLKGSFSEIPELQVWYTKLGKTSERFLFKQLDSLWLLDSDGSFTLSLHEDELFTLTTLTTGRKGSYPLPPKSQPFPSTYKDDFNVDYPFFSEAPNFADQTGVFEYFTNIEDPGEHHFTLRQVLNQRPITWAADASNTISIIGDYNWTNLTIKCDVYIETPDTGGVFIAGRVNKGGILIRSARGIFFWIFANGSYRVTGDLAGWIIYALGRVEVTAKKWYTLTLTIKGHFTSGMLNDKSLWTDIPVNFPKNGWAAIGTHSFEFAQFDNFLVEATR

activation, inactive:
CC(C)(C)NC(=O)c1oc2ccccc2c1NC(=O)c1ccccc1F -11.6%, COc1cc(NC(=O)Cn2c(=O)ccc3cc(S(=O)(=O)N4CCCC4)ccc32)cc(OC)c1 -34.3%, CC1=C(C(=O)N2CCN(c3ccccc3)CC2)C2(CCCCC2)OC1=O -19.7%, CCC(C)NC(=O)CCC(=O)N1Cc2ccccc2Oc2ncccc21 (stereo not drawn) -15.9%, O=C(NCc1ccccc1)c1cc2ccc3cccnc3c2[nH]1 -6.96%, CCc1ccc(-n2c(=O)c3c4c(sc3n(CC(=O)c3ccc(Br)cc3)c2=O)CCC4)cc1 5.05%, O=C(NCC1(c2ccccc2)CCCC1)C(=O)Nc1cccc(Br)c1 -7.45%, Cc1ccccc1CCNC(=O)C1CCN(S(=O)(=O)c2ccc3c(ccn3C)c2)CC1 -10%, Cc1cccc(C)c1NC(=O)Cn1nnc(C(=O)NCc2ccc(F)cc2)c1N -5.41%, CCc1nn(C(C)C(=O)N2CCN(c3ccccc3)CC2)c(=O)c2cc3occc3n12 (stereo not drawn) -11.1%, Cc1oc2c(C)c3oc(=O)c(CC(=O)N4CCCCC4)c(C)c3cc2c1C 3.11%, CCCN(CCC)C(=O)C(Cc1ccccc1)NS(=O)(=O)c1ccc2c(c1)c(=O)n(C)c(=O)n2C (stereo not drawn) -7.73%, Cc1cccc(N2CCN(C(=O)C3CCN(c4ncnc5c4nc4n5CCCCC4)CC3)CC2C)c1 (stereo not drawn) -16.8%, Cn1nnnc1SCCCNCc1cccc(OCc2ccc(F)cc2)c1 -9.88%, COc1cc(Nc2ncc3c(n2)CCN(Cc2cccc(C)c2)C3)cc(OC)c1 -21.8%, Cn1c(=O)c2c(nc(Oc3ccccc3Cl)n2Cc2ccc(C#N)cc2)n(C)c1=O -10.4%, Cc1cc(C)c2c(CC(=O)Nc3ccccc3C(F)(F)F)coc2c1 -10.9%, CCc1ccccc1NC(=O)Cn1nc(C(F)(F)F)c2c1CCC2 -14.4%, Cc1nn2c(=O)cc(COC(=O)c3cccs3)nc2s1 -11.9%, COc1ccc(S(=O)(=O)c2c(O)c3ccc(C(=O)Nc4ccccc4)cc3[nH]c2=O)cc1 -1.51%, CCCSc1ncc(Cl)c(C(=O)Nc2nc3ccc(C)cc3s2)n1 -14.3%, CSc1ccc(CCNC(=O)c2ccc3c(Cl)c4c(nc3c2)CCCC4)cc1 -14%, CN(c1ccccc1C(=O)O)S(=O)(=O)c1ccc2[nH]c(=O)oc2c1 -11.6%, CCOC(=O)c1ccccc1NC(=O)Cn1c(=O)n(Cc2nc(C)no2)c(=O)c2ccccc21 -19.8%, O=C(CCn1c(=O)c2ccccc2n(Cc2cccc(Cl)c2)c1=O)NCCc1ccccc1 -8.03%, CCOC(=O)N1CCC(Nc2ccc(Cl)cc2N)CC1 -14.7%, CCS(=O)(=O)c1ncc(Cl)c(C(=O)NCc2ccc(OC)cc2)n1 -28.5%, CCc1nn(CC(=O)Nc2cccc(C(C)=O)c2)c(=O)c2cc3sccc3n12 -24.2%
